{"source": "PubChem BioAssay (NCI)", "note": "Where “and” joins values, the source holds several entries; their conditions need not be identical. Equal values may be shown once.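 How tested: cells in 96-well plates exposed to compound for 48 hours at five concentrations. GI50 = concentration required for 50% inhibition of growth. TGI: concentration producing complete growth inhibition.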 Square brackets hold non-standard residues; d marks the D form. Peptide text beside a SMILES is read from it. * marks the point of attachment. Cbz = O=C(OCc1ccccc1)*; Aib = CC(C)(N)C(=O)O; OBn = c1ccc(CO*)cc1", "data": [{"tested_on": "NCI-H322M lung", "test": "NCI-60 cell line screen, 48 h", "units": {"TGI": "µM"}, "values": [{"smiles": "C=CC1(C)CC(=O)C2(O)C(C)(O1)C(OC(C)=O)C(O)C1C(C)(C)CCC(O)C12C", "note": "(centres undefined)", "TGI": "> 112"}, {"smiles": "COc1cc(O)c2c(=O)c(OC)c(-c3ccc(OC)c(O)c3)oc2c1", "TGI": "> 100"}, {"smiles": "COc1cc(/C=C2\\CCCCC3=C2N=C2SC(C)=CN2C3c2cc(OC)c(OC)c(OC)c2)cc(OC)c1OC", "note": "(centres undefined)", "GI50": "> 100 µM", "TGI": "> 100"}, {"smiles": "CCc1c(O)c(O)c(C(C)=O)c2c(O)c(-c3c(C)cc4c(CC)c(O)c(O)c(C(C)=O)c4c3O)c(C)cc12", "TGI": 19.2}, {"smiles": "COc1cc(C2c3cc4c(cc3[C@@H](Nc3ccccc3)C3COC(=O)[C@H]23)OCO4)cc(OC)c1O", "note": "(some centres undefined)", "TGI": "> 100"}, {"smiles": "CN(C)CCNC(=O)Cc1ccccc1Nc1c(Cl)cccc1Cl", "TGI": 27.1}, {"smiles": "O=c1[nH]c(=O)n(C2CC(O)C(CO)O2)cc1OS(=O)(=O)C(F)(F)F", "note": "(centres undefined)", "TGI": "> 100"}, {"smiles": "COc1c(C)c(OCC=C(C)C)cc(CO)c1CO", "TGI": "> 100"}, {"smiles": "O=C(NCCCl)O/N=C/c1cccnc1", "TGI": "> 100"}, {"smiles": "C=CCn1c(=O)ccn(/C(=C/C(=O)OCC)C(=O)OCC)c1=O", "TGI": 99.7}, {"smiles": "Cc1cc(C(=O)CSC(=S)SC(C)(C)C)ccc1Cl", "TGI": 43}, {"smiles": "CCC(C)(C)n1c(C)nc2c1C(=O)c1ccccc1C2=O", "TGI": "> 100"}, {"smiles": "C=CC12CCN(CC1)C(C(O)c1ccnc3ccc(OC)cc13)C2", "note": "(centres undefined)", "GI50": "> 100 µM", "TGI": "> 100"}, {"smiles": "O=C(Nc1nc(-c2c[nH]c3ccccc23)cs1)c1n[nH]c(=O)c2ccccc12", "GI50": "> 68.8 µM", "TGI": "> 100"}, {"smiles": "CC(NC(=O)C(C)(C)NC(=O)C(CC(=O)OCc1ccccc1)NC(=O)OCc1ccccc1)C(N)=O", "note": "(centres undefined) (Cbz-Asp(OBn)-[Aib]-Ala-NH2; configuration not given here)", "TGI": "> 100"}, {"smiles": "CN1CC[C@]2(c3cccc(O)c3)CC(=O)/C(=C/c3ccccc3)[C@@H]1C2", "TGI": 22.3}, {"smiles": "COc1cc2c(cc1OCCCCCN1CCN(c3ncnc4ccccc34)CC1)N=CC1CCCN1C2=O", "note": "(centres undefined)", "GI50": "0.117 µM", "TGI": 4.72}, {"smiles": "CN1Nc2ccccc2CC1=O", "TGI": "> 100"}, {"smiles": "CC1(C)CCc2c(ccc(C(=O)/C=C/c3ccc(O)cc3)c2O)O1", "TGI": 22.7}, {"smiles": "CC(C)=CCC1=C(O)c2ccccc2C(=O)C1=O", "GI50": "> 100 µM and 30.4 µM and 20.1 µM", "TGI": "> 100"}, {"smiles": "COc1ccc(C(=O)NCCN(C)C)c2nc3ccccc3cc12", "TGI": 9.72}, {"smiles": "CO/N=C(/C(=O)OC)c1ccccc1COc1ccccc1C(F)(F)F", "TGI": "> 100"}, {"smiles": "O=[N+]([O-])c1cc2oc(CSc3ccccc3)nc2cc1Cl", "TGI": "> 100"}, {"smiles": "CNc1[nH]c(=S)nc2sc3c(c12)CCCC3", "TGI": "> 75"}, {"smiles": "CCOC(=O)C(NC(=O)CC)(N1CCN(c2cc3c(cc2F)c(=O)c(C(=O)O)cn3C2CC2)CC1)C(F)(F)F", "note": "(centres undefined)", "TGI": "> 100"}, {"smiles": "CC[C@@H]1NC(C(=O)OC)Cc2c1[nH]c1ccccc21", "note": "(some centres undefined)", "TGI": "> 100"}, {"smiles": "CC(=O)N/C(=C\\c1ccccc1/C=C(\\NC(C)=O)c1nc2cc(C)c(C)cc2[nH]1)c1nc2cc(C)c(C)cc2[nH]1", "TGI": "> 100"}, {"smiles": "CNCCCNc1ccnc2cc(Cl)ccc12", "GI50": "19.5 µM", "TGI": 62.7}, {"smiles": "C=C(C)[C@H]1C2=CC(C(=O)OC)=C(C[C@H](C(=C)C)[C@@H](O)[C@@H](O)C3=C[C@H]1OC3=O)O2", "TGI": "> 100"}, {"smiles": "COC(=O)c1c(C)cc(OC)c(C/C=C(\\C)CCCc2coc(C=C(C)C)c2)c1OC", "TGI": "> 100"}, {"smiles": "COc1ccc(-c2c(C#N)c(N3CCOCC3)nc3[nH]c(=S)[nH]c(=S)c23)cc1OC", "GI50": "> 100 µM", "TGI": "> 100"}, {"smiles": "CCCCCCn1c(-c2ccc(C(=O)O/N=C(\\N)c3ccc4c(c3)OCO4)cc2)nc(-c2ccccc2)c1-c1ccccc1", "GI50": "5.82 µM", "TGI": "> 100"}, {"smiles": "COCOCCC#CCO", "TGI": "> 100"}, {"smiles": "CCOC(=O)c1c2cccccc-2nc1Nc1cccc2c(C)ccnc12", "TGI": "> 10"}, {"smiles": "CC(C)(C)OC(=O)NC(CSSCC(NC(=O)OC(C)(C)C)C(=O)O)C(=O)O", "note": "(centres undefined)", "TGI": "> 100"}, {"smiles": "CC1=C(C(=O)Nc2ccccc2)C(c2ccc(Cl)c(Cl)c2)C(C(=O)Nc2ccccc2)=C(C)N1", "TGI": 39.2}, {"smiles": "Cc1ccc(/C=C2/N=C(N/N=C\\C(O)C(O)C(O)C(O)CO)NC2=O)cc1", "note": "(centres undefined)", "TGI": "> 100"}, {"smiles": "NC(N)=Nc1nc2ccccc2o1", "GI50": "> 100 µM", "TGI": "> 100"}, {"smiles": "CCCC(=O)OC[n+]1ccc2c(C)c3[nH]c4ccccc4c3c(C)c2c1", "TGI": 2.05}, {"smiles": "COc1ccc(/C=C\\c2cc(OC)c(OC)c(OC)c2)cc1OCC(=O)O", "TGI": "> 100"}]}]}
